The supplement of paper PMC8728848
The list shows a part of the results.

Legend:
Test in all cases: glycan array binding signal (z-score within array); higher = stronger binding
Conditions in all cases: glycan notation: IUPAC condensed, linker removed; mutation: R343A
[1] = target: Fuc(a1-2)Gal
Procedure, shortened: (§1)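 The binding signal is a Z-score computed within each array and averaged over linkers. Arrays of the same protein sequence at different concentrations or buffers were also averaged together. Data originate from 3228 arrays in the Consortium for Functional Glycomics database, kept only where the protein sequence was available.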

[2] = target: Fuc(a1-2)Gal(b1-3)GalNAc
Procedure, shortened: as §1

[3] = target: Fuc(a1-2)Gal(b1-3)GalNAc(b1-3)Gal
Procedure, shortened: as §1

[4] = target: Fuc(a1-2)Gal(b1-3)GalNAc(b1-3)Gal(a1-4)Gal(b1-4)Glc
Procedure, shortened: as §1

[5] = target: Fuc(a1-2)Gal(b1-3)GalNAc(b1-4)[Neu5Ac(a2-3)]Gal(b1-4)Glc
Procedure, shortened: as §1

[6] = target: Fuc(a1-2)Gal(b1-3)GlcNAc
Procedure, shortened: as §1

[7] = target: Fuc(a1-2)Gal(b1-3)GlcNAc(b1-3)Gal(b1-4)Glc
Procedure, shortened: as §1

[8] = target: Fuc(a1-2)Gal(b1-3)[Fuc(a1-4)]GlcNAc
Procedure, shortened: as §1

[9] = target: Fuc(a1-2)Gal(b1-4)Glc
Procedure, shortened: as §1

[10] = target: Fuc(a1-2)Gal(b1-4)Glc6S
Procedure, shortened: as §1

[11] = target: Fuc(a1-2)Gal(b1-4)GlcNAc
Procedure, shortened: as §1

[12] = target: Fuc(a1-2)Gal(b1-4)GlcNAc(b1-3)Gal(b1-4)GlcNAc
Procedure, shortened: as §1

[13] = target: Fuc(a1-2)Gal(b1-4)GlcNAc(b1-3)Gal(b1-4)GlcNAc(b1-3)Gal(b1-4)GlcNAc
Procedure, shortened: as §1

[14] = target: Fuc(a1-2)Gal(b1-4)GlcNAc6S
Procedure, shortened: as §1

[15] = target: Fuc(a1-2)Gal(b1-4)[Fuc(a1-3)]GlcNAc
Procedure, shortened: as §1

[16] = target: Fuc(a1-2)Gal(b1-4)[Fuc(a1-3)]GlcNAc(b1-3)Gal(b1-4)[Fuc(a1-3)]GlcNAc
Procedure, shortened: as §1

[17] = target: Fuc(a1-2)Gal(b1-4)[Fuc(a1-3)]GlcNAc(b1-3)Gal(b1-4)[Fuc(a1-3)]GlcNAc(b1-3)Gal(b1-4)[Fuc(a1-3)]GlcNAc
Procedure, shortened: as §1

[18] = target: Fuc(a1-2)Gal6S(b1-4)Glc
Procedure, shortened: as §1

[19] = target: Fuc(a1-2)Gal6S(b1-4)Glc6S
Procedure, shortened: as §1

[20] = target: Fuc(a1-2)Gal6S(b1-4)GlcNAc
Procedure, shortened: as §1

[21] = target: Fuc(a1-2)[Gal(a1-3)]Gal
Procedure, shortened: as §1

[22] = target: Fuc(a1-2)[Gal(a1-3)]Gal(b1-3)GlcNAc
Procedure, shortened: as §1

[23] = target: Fuc(a1-2)[Gal(a1-3)]Gal(b1-4)Glc
Procedure, shortened: as §1

[24] = target: Fuc(a1-2)[Gal(a1-3)]Gal(b1-4)GlcNAc
Procedure, shortened: as §1

[25] = target: Fuc(a1-2)[Gal(a1-3)]Gal(b1-4)[Fuc(a1-3)]GlcNAc
Procedure, shortened: as §1

[26] = target: Fuc(a1-2)[Gal(a1-4)]Gal(b1-4)GlcNAc
Procedure, shortened: as §1

[27] = target: Fuc(a1-2)[GalNAc(a1-3)]Gal
Procedure, shortened: as §1

[28] = target: Fuc(a1-2)[GalNAc(a1-3)]Gal(b1-3)GlcNAc
Procedure, shortened: as §1

[29] = target: Fuc(a1-2)[GalNAc(a1-3)]Gal(b1-4)Glc
Procedure, shortened: as §1

[30] = target: Fuc(a1-2)[GalNAc(a1-3)]Gal(b1-4)GlcNAc
Procedure, shortened: as §1

B1: Surfactant Protein D (Human); Neck + Carbohydrate Recognition Domain (NCRD) (Homo sapiens) (protein)
chain: MLLFLLSALVLLTQPLGYLEAEMKTYSHRTMPSACTLVMCSSVESGLPGRDRDGREGPRGEKGDPGLPGAAGQAGMPGQAGPVGPKGDNGSVGEPGPKGDTGPSGPPGPPGVPGPAGREGALGKQGNIGPQGKPGPKGEAGPKGEVGAPGMQGSAGARGLAGPKGERGVPGERGVPGNTGAAGSAGAMGPQGSPGARGPPGLKGDKGIPGDKGAKGESGLPDVASLRQQVEALQGQVQHLQAAFSQYKKVELFPNGQSVGEKIFKTAQFVKPFTEAQLLCTQAGGQLASPRSAAENAALQQLVVAKNEAAFLSMTDSKTEGKFTYPTGESLVYSNWAPGEPNDDGGSEDCVEIFTNGKWNDAACGEKRLVVCEF
glycan array binding signal (z-score) [1]: -0.154
glycan array binding signal (z-score) [2]: -0.397
glycan array binding signal (z-score) [3]: 0.482
glycan array binding signal (z-score) [4]: -0.236
glycan array binding signal (z-score) [5]: -0.174
glycan array binding signal (z-score) [6]: -0.335
glycan array binding signal (z-score) [7]: -0.397
glycan array binding signal (z-score) [8]: -0.181
glycan array binding signal (z-score) [9]: -0.306
glycan array binding signal (z-score) [10]: -0.212
glycan array binding signal (z-score) [11]: -0.207
glycan array binding signal (z-score) [12]: -0.224
glycan array binding signal (z-score) [13]: -0.209
glycan array binding signal (z-score) [14]: 0.149
glycan array binding signal (z-score) [15]: -0.193
glycan array binding signal (z-score) [16]: -0.051
glycan array binding signal (z-score) [17]: -0.243
glycan array binding signal (z-score) [18]: -0.138
glycan array binding signal (z-score) [19]: 0.369
glycan array binding signal (z-score) [20]: 0.247
glycan array binding signal (z-score) [21]: 0.161
glycan array binding signal (z-score) [22]: -0.057
glycan array binding signal (z-score) [23]: -0.375
glycan array binding signal (z-score) [24]: 0.03
glycan array binding signal (z-score) [25]: -0.191
glycan array binding signal (z-score) [26]: -0.318
glycan array binding signal (z-score) [27]: -0.181
glycan array binding signal (z-score) [28]: -0.17
glycan array binding signal (z-score) [29]: -0.255
glycan array binding signal (z-score) [30]: -0.293
